Data on 42 sequences can be found in article PMC7819943, “Rice protein-binding microarrays: a tool to detect cis-acting elements near promoter regions in rice”.

This is one part of the list.

The test has as its target T1, OsWOX13 (Oryza sativa, UniProt Q5QMM3 1-267).
T1 sequence: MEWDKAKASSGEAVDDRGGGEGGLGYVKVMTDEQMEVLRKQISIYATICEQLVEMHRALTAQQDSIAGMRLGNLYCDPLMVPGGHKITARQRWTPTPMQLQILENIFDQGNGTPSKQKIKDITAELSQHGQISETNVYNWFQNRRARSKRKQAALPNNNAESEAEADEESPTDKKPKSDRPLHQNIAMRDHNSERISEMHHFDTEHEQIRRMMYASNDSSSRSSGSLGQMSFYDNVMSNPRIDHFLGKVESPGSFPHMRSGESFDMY
Briefly: protein-binding microarray (RPBM); PBS, 2% BSA, 51.3 ng/ul salmon testes DNA, 50 uM zinc acetate, 200 nM TF, 25 C, 1 h; high values mean tight binding. The following applies: protein: recombinant; tags: N-terminal polyhistidine and DsRed monomer fusion (pET32a); label: CyDye5-dUTP incorporated in the synthesized complementary strand; 3' TTTTT single-stranded linker to array surface; dsDNA, one strand shown. Put shortly: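 The binding signal is fluorescence intensity per feature, in arbitrary units, read on an Axon 4000B scanner. Polyhistidine- and DsRed-tagged transcription factors (N-terminal fusions) from E. coli BL21-CodonPlus were purified on Ni–NTA and applied at 200 nM for 1 h at 25 °C to a double-stranded, BSA-blocked custom Agilent array in buffer with 50 µM zinc acetate.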
For the sequence “TGTGTTAATTAATTTTAACTTTAGTTATATTCAGTGGCGACGGAGTCACCTAGTGCAG”, the binding signal was 47200 fluorescence intensity (a.u.).

On to “TGGATAGATTAATAGGGATAAACAAAATCTCCTTACTACCCGGAGTCACCTAGTGCAG”, for which the binding signal was 10600 fluorescence intensity (a.u.).

On to “TGGCTATTCATGGACTAATTAGGCTTAAAAGATTCGTCTCCGGAGTCACCTAGTGCAG”, for which the binding signal is 5430 fluorescence intensity (a.u.).

Turning to “TGGGATCAATTACTAGTGGTTTATATTTAAGTGGGGTCATCGGAGTCACCTAGTGCAG”, the binding signal was 7490 fluorescence intensity (a.u.).

Turning to “GTGATAATTAAAACCCAATCAATCATAAGTTAATACCACCCGGAGTCACCTAGTGCAG”, the binding signal is 50700 fluorescence intensity (a.u.).

Consider “ATAAATTACCTTTAAATTTGCATGTGTTAAGCGATCATATCGGAGTCACCTAGTGCAG”, for which the binding signal was 27500 fluorescence intensity (a.u.).

On to “TGTTAATGAATCTAAATAGATATATATGTCTAAATTCATTCGGAGTCACCTAGTGCAG”, for which the binding signal is 4660 fluorescence intensity (a.u.).

As for “AGTCCCTGGATCCAATCACCACCTTAGGATTATTATAATCCGGAGTCACCTAGTGCAG”, the binding signal was 7270 fluorescence intensity (a.u.).

For “ACATAAGTTAATTTTGACTACGATTATTGTTTAGGAAAGTCGGAGTCACCTAGTGCAG”, the binding signal was 11300 fluorescence intensity (a.u.).

Consider “AAAATGGTCAAATATTAGATTGGACGGTATAAAATTACACCGGAGTCACCTAGTGCAG”, for which the binding signal is 4720 fluorescence intensity (a.u.).

In the case of “GCAGGTGCTTAATTAACATGTATTAAACTCGGAGACTTGTCGGAGTCACCTAGTGCAG”, the binding signal was 3910 fluorescence intensity (a.u.).

In the case of “TATTGATCAAATTTGGCAGCAAACTAAATATAGACATTTTCGGAGTCACCTAGTGCAG”, the binding signal was 6750 fluorescence intensity (a.u.).

Consider “CACAAGAAATGGTGATTAGTGAATTCAAAATTAACCTGTCCGGAGTCACCTAGTGCAG”, for which the binding signal is 13400 fluorescence intensity (a.u.).

As for “ACTAATTATAAAAGAATTTTATATAAGACGGAACGGTCAACGGAGTCACCTAGTGCAG”, the binding signal was 19800 fluorescence intensity (a.u.).

As to “ATGACTTAAAAGAATACAGATTGCCAACATGTATACCCGTCGGAGTCACCTAGTGCAG”, the binding signal was 3460 fluorescence intensity (a.u.).

Turning to “GAAGAGGATTGGATTGATTCTATATCGTGCAGGGTTCATTCGGAGTCACCTAGTGCAG”, the binding signal was 11500 fluorescence intensity (a.u.).

For “TTAAATATAGTTAATTAAACTAGCTAGCTCCTCCGATCCTCGGAGTCACCTAGTGCAG”, the binding signal was 12800 fluorescence intensity (a.u.).

Take “AATCATTTAAAACATTGATTTTATTTGACGATAAAACTAGCGGAGTCACCTAGTGCAG”: the binding signal was 4690 fluorescence intensity (a.u.).

With “TAAGTTGGATTGAATTGGCTTGTCTACACGTGTCCTTTCCCGGAGTCACCTAGTGCAG”, the binding signal is 4070 fluorescence intensity (a.u.).

Regarding “ATAATTTGCAGTATTATATTGACAAATGGGCCCACTTGTGCGGAGTCACCTAGTGCAG”, the binding signal is 19900 fluorescence intensity (a.u.).

Regarding “CAAATTTATTAATCCTAATTAATCCATAATTAGTAAATATCGGAGTCACCTAGTGCAG”, the binding signal was 28600 fluorescence intensity (a.u.).

As for “AAGATTGCACCATTCATTCATCAATAGATAGCAGATTAGCCGGAGTCACCTAGTGCAG”, the binding signal is 5130 fluorescence intensity (a.u.).

As to “ATTTGCATTTACGGGTAATTATTATTTTAGCGATGAGTGACGGAGTCACCTAGTGCAG”, the binding signal was 7200 fluorescence intensity (a.u.).

Regarding “AGCGCTAATTAGGTCATTTGCGGACTAATCACCCCGGGTGCGGAGTCACCTAGTGCAG”, the binding signal is 33100 fluorescence intensity (a.u.).

For the sequence “GTGATTAATACTAGGAGGGAGGGTATGATTATGAAACGGACGGAGTCACCTAGTGCAG”, the binding signal was 6160 fluorescence intensity (a.u.).

Turning to “AACCATTTATTGACTCGATGCATTGGGATAAGTCTAACCGCGGAGTCACCTAGTGCAG”, the binding signal was 4310 fluorescence intensity (a.u.).

Turning to “CCCTTGATGAACTATAGACCTGTAGAGAGATCAGAATTCACGGAGTCACCTAGTGCAG”, the binding signal is 3270 fluorescence intensity (a.u.).

Turning to “ACACACTAACTAATCAACAACGATAATAATATCCCATTCCCGGAGTCACCTAGTGCAG”, the binding signal is 5150 fluorescence intensity (a.u.).

Consider “ATACTGTCATCAATTGATTACTCTGACCGTCGATCACACACGGAGTCACCTAGTGCAG”, for which the binding signal was 34100 fluorescence intensity (a.u.).

“CTAGATGAAATAATTTAGTTCAACGTATACAACAAACGATCGGAGTCACCTAGTGCAG”: the binding signal is 8190 fluorescence intensity (a.u.).

For “AAGAAATAATTTTAAAATGGTGGTGCCATATGGGCCCCAACGGAGTCACCTAGTGCAG”, the binding signal is 3940 fluorescence intensity (a.u.).

As to “ACCCACAGCCCACCAATCACAGCACTCCTTTGTATTCTCTCGGAGTCACCTAGTGCAG”, the binding signal was 3960 fluorescence intensity (a.u.).

On to “TGAACTTAATTTCTACTAGAAATTTCTGGAAAAGACCTGCCGGAGTCACCTAGTGCAG”, for which the binding signal is 5790 fluorescence intensity (a.u.).

On to “CATACTCTTAGCTCATTTAAATTGACATTTGCACGATGATCGGAGTCACCTAGTGCAG”, for which the binding signal is 6160 fluorescence intensity (a.u.).

As for “TATTGATGGAGAAGAGGATAGGAAATGGAGGTTTTGGCTTCGGAGTCACCTAGTGCAG”, the binding signal is 6540 fluorescence intensity (a.u.).

Take “CATGACAAATTAACAAACAAACTTGCATGACCAGGTTGGACGGAGTCACCTAGTGCAG”: the binding signal was 18500 fluorescence intensity (a.u.).

As for “AATTTATTGAGCCTAATTAATTCATAATTAGTCTATGTGACGGAGTCACCTAGTGCAG”, the binding signal is 25900 fluorescence intensity (a.u.).

As to “AATTCTCCTCAATAATTAATGGTTATTAGTAAGACACAGACGGAGTCACCTAGTGCAG”, the binding signal is 7010 fluorescence intensity (a.u.).

As for “ATGTAATTAGTTACTAATAACTTCAATTGGCATCATGGATCGGAGTCACCTAGTGCAG”, the binding signal was 35500 fluorescence intensity (a.u.).

Regarding “CTAATTGGCAAATTAAACAAAGAAGAAGAGGAAAGGAAGGCGGAGTCACCTAGTGCAG”, the binding signal is 44700 fluorescence intensity (a.u.).

Turning to “ACTAATGTAATCGATCAACTTGTAAATCATATATCTAGATCGGAGTCACCTAGTGCAG”, the binding signal is 6900 fluorescence intensity (a.u.).

“CCCTGTCAGATTTCCATCAATCTAGCTCTCTTGTGCCTGACGGAGTCACCTAGTGCAG”: the binding signal was 10200 fluorescence intensity (a.u.).
